“And” between values parts separate entries of the source, which are not always exact repeats. Equal entries are not always repeated. Among all 220,000 compounds or so, about 16,000 (7.3%) were called active. Inconclusive means that the source gave no clear call. Such entries were picked first, then a sample of the others. Calls come from the whole dose curve; as a rule, active = well fitted inhibition curve with a large enough effect (not every such curve was filed as active); inconclusive = small, poorly fitted or top-dose-only effect, or another doubt; inactive = no such curve, though single readings can be large or run the other way. Potencies of inconclusive entries are left out as doubtful fits.
molecular target: Aldehyde dehydrogenase 1A1 (Homo sapiens) (UniProt P00352); test: qHTS Assay for Inhibitors of Aldehyde Dehydrogenase 1 (ALDH1A1); conditions: Purified ALDH1A1, NADH fluorescence, propionaldehyde substrate; series mostly up to 75.3 µM; activity, negative = inhibition: at the top concentration;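 for activity, negative = inhibition: plate controls were no enzyme wells and a reference inhibitor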
Potency is the fitted concentration of half-maximal effect; tags give direction and shape of the fitted curve.

Sequence of UniProt P00352 (P00352 whole entry, looked up): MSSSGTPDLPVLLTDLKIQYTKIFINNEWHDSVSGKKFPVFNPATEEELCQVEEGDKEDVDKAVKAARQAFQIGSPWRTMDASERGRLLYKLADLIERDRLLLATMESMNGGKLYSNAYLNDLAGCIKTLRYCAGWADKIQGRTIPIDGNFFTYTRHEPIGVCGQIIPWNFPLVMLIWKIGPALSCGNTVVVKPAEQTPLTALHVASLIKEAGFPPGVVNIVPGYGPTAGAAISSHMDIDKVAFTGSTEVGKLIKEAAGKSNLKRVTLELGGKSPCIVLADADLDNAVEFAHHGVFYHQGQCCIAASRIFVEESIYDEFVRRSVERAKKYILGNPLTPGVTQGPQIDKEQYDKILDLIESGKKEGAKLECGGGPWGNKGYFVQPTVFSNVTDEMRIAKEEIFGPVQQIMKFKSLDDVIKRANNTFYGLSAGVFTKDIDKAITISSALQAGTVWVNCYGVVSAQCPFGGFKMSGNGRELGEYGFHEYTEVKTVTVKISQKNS

| SMILES | Potency | activity, negative = inhibition |
| --- | --- | --- |
| CCCCN(CCCC)CCCNC(=O)C12CN(Cc3ccccc3)CC1C(c1cccc([N+](=O)[O-])c1)=NO2 (centres undefined) | inconclusive [inhibitor, single point] |  |
| COc1ccc(C2(C(=O)NCc3ccco3)CCCC2)cc1OC |  | inactive: 0.0881% |
| CCOC(=O)/C=c1\s/c(=C\c2ccc(C#N)cc2)c(=O)n1CC(=O)Nc1cccc(C)c1C |  | inactive: 1.24% |
| O=C1C=CC(=O)c2c(O)c(Cl)c(Cl)c(O)c21 | active: 1.26 µM |  |
| O=C(/C=C/c1ccc(Cl)cc1)NC(=S)Nc1ccc(CN2CCOCC2)cc1 |  | inactive: -3.19% |
| CCc1ccccc1N=C1SCC(=O)N1C | inconclusive [inhibitor, single point] |  |
| COc1ccc2nc(/N=C\N(C)C)sc2c1 |  | inactive: -7.89% |
| CCC(=O)N1CCc2cc(S(=O)(=O)NCCC(=O)N3CC=C(c4ccccc4)CC3)ccc21 | inconclusive [inhibitor, single point] |  |
| Cc1onc(C(=O)NC(C)c2ccccc2)c1[N+](=O)[O-] (centres undefined) |  | inactive: -6.88% |
| O=C(Nc1cc(N2CCOCC2)ncn1)NC1(C(F)(F)F)Oc2ccccc2O1 | inconclusive [inhibitor, single point] |  |
| CC(=O)c1c(N2CCCC2)[nH]c(-c2ccccc2)nc1=S | inconclusive [inhibitor, partial curve] |  |
| CS(=O)(=O)N(Cc1ccc(C(=O)NC2CCCCC2O)cc1)c1ccccc1 (centres undefined) |  | inactive: 3.59% |
| O=C(O)C1=C/C(=C(/c2ccccc2)c2cc(C(=O)O)c(O)c3ccccc23)c2ccccc2C1=O |  | inactive: -3.69% [at 13.5 µM] and inactive: 9.14% [at 13.5 µM] |
| C[C@@H]1CCC[C@H](C)N1 |  | inactive: 11.8% [at 20.9 µM] |
| CN1CCCCc2c1[nH]c1ccccc1c2=O | inconclusive [inhibitor, single point] |  |
| COc1ccccc1C(=O)N1CCN(S(=O)(=O)c2ccccc2)CC1 |  | inactive: 0.0307% |
| O=C(NCC(c1ccco1)N1CCCCC1)C(c1ccccc1)c1ccccc1 (centres undefined) | inconclusive [inhibitor, single point] |  |
| Cc1nc2ccc(C(=O)c3ccccc3)cc2[nH]1 | inconclusive [inhibitor, single point] |  |
| Cc1cc(C(F)F)n2nc(C(=O)Nc3sc4c(c3C#N)CCC4)nc2n1 | inconclusive [inhibitor, single point] |  |
| CCc1c(O)cc2n(c1=O)-c1ccc(Cl)cc1C2(C)C | active: 28.2 µM |  |
| Cc1cc(NC(=O)CN2CCc3ccccc3C2)nc2c1c(=O)oc1ccccc12 | inconclusive [inhibitor, partial curve] |  |
| O=C(NC1=C(NC2CCS(=O)(=O)C2)C(=O)c2ccccc2C1=O)c1ccccc1 (centres undefined) | active: 20 µM |  |
| COc1ccc(OC)c2[nH]c(=O)c(CCNC(=O)C3CCCCC3)cc12 | inconclusive [inhibitor, single point] |  |
| Cc1ccc(C(=O)NC(=S)/C=C2\N(C)c3ccccc3C2(C)C)cc1 | inconclusive [inhibitor, single point] |  |
| Cc1cc(N2CCCC2)c(C)cc1C=O | active: 14.1 µM |  |

| SMILES | Potency | activity, negative = inhibition |
| --- | --- | --- |
| COc1ccc(S(=O)(=O)Nc2cc(C(=O)NCCC(C)C)ccc2N2CCOCC2)cc1 | active: 14.1 µM |  |
| Cc1c(NC(=O)Cn2cc([N+](=O)[O-])cn2)c(=O)n(-c2ccccc2)n1C | inconclusive [inhibitor, single point] |  |
| COC(=O)C1=C(C)N(CC2CCCO2)C(=O)/C1=C\c1ccc(O)cc1 (centres undefined) | inconclusive [inhibitor, single point] |  |
| Cc1nn(CC(=O)Nc2ccncc2)c(C)c1[N+](=O)[O-] |  | inactive: 0.418% |
| CCOc1ccc(C(=O)Nc2nnc(C(C)C)s2)cc1OCC | active: 25.1 µM |  |
| CC(=O)c1c(C)nn(CC(O)Cn2c3c(c4cc(C)ccc42)CCCC3=O)c1C (centres undefined) | inconclusive [inhibitor, partial curve] |  |
| CC(C)NC(=S)NN=C1c2ccccc2-c2ccccc21 |  | inactive: -14.1% |
| Cc1ccc(S(=O)(=O)N2CCC(C)CC2)cc1[N+](=O)[O-] | inconclusive [inhibitor, single point] |  |
| CCCCCCSC1=C(C#N)C(c2ccccc2)CC(=O)N1 (centres undefined) | inconclusive [inhibitor, full curve] |  |
| CC(C)CNC1=C(C(=S)Nc2ccccc2)C(=O)CC(C)(C)C1 | inconclusive [inhibitor, single point] |  |
| COc1cc(C(Nc2ccc(S(=O)(=O)N3CCC(C)CC3)cc2)C(=O)NCC2CCCO2)cc(OC)c1OC (centres undefined) | active: 3.55 µM |  |
| COc1cc(/C=C2/SC(=NCc3ccccc3)N(Cc3ccccc3)C2=O)ccc1O | active: 2.24 µM |  |
| O=C(COc1ccccc1Cl)NCc1ccncc1 |  | inactive: 7.01% |
| CCN(CC)S(=O)(=O)c1ccc2c(c1)c(C(=O)O)cn2C |  | inactive: -1.37% |
| O=c1c2ccccc2nnn1CSc1nnc(-c2cccc(S(=O)(=O)N3CCCCC3)c2)o1 | inconclusive [inhibitor, single point] |  |
| CCOC(=O)c1c(C)nn(-c2ccc(NC(=O)CSCC(=O)O)cc2)c1C | inconclusive [inhibitor, single point] |  |
| Cc1cc(C)c2c(n1)nn1c(NCCCN(C)C)cc(C)nc21 | inconclusive [inhibitor, partial curve] |  |
| O=C(Nc1cccc(-n2cnnn2)c1)c1ccco1 | active: 39.8 µM |  |
| COc1cccc(-n2c(CNc3ccc(F)cc3)nnc2SCC(N)=O)c1 | inconclusive [inhibitor, single point] |  |
| CCCCCC(=O)NNC(=S)NC(C)=O |  | inactive: -6.09% |
| OC(COCC1COc2ccccc2O1)CN1CCN(c2ccc(F)cc2)CC1 (centres undefined) | inconclusive [inhibitor, single point] |  |
| COc1ccc(N2C(N)=NC(N)=NC23CCCC3)cc1 | inconclusive [inhibitor, single point] |  |
| Cc1nn(-c2ccccc2)c2[nH]c(=O)c(CNc3ccc(N4CCOCC4)cc3)cc12 | inconclusive [inhibitor, single point] |  |
| CCc1nnc(NC(=O)COc2ccccc2[N+](=O)[O-])s1 |  | inactive: -7.52% |
| O=C(COc1cccnc1[N+](=O)[O-])Nc1ccc2c(c1)OC(F)(F)O2 |  | inactive: 3.02% |

| SMILES | Potency | activity, negative = inhibition |
| --- | --- | --- |
| CCCCCC(=O)Nc1ccc(N2CCN(C(=O)c3ccccc3)CC2)cc1 |  | inactive: -1.79% |
| O=C(NCc1ccccn1)c1ccc2c(=O)n(CCc3ccccc3)c(=O)[nH]c2c1 | inconclusive [inhibitor, partial curve] |  |
| O=S(=O)(NCC(c1ccccc1)N1CCNCC1)c1ccc(Cl)cc1 (centres undefined) | active: 8.91 µM |  |
| CCOC(=O)CSc1nc2ccccc2c(=O)n1CCCCCC(=O)NCc1ccco1 | inconclusive [inhibitor, single point] |  |
| O=C(CSc1ccc2c(c1)OCCO2)Nc1ccc(Br)cc1 | active: 7.08 µM |  |
| CCCSc1nc2c(cnn2-c2ccc(F)cc2)c(=O)[nH]1 |  | inactive: -0.971% |
| CCN(C(=O)CSc1nc2ccc([N+](=O)[O-])cc2s1)C1CCS(=O)(=O)C1 (centres undefined) | inconclusive [inhibitor, single point] |  |
| CC(/C=C\C=C\c1ccccc1)=N\NC(=O)c1cncc(Br)c1 | active: 22.4 µM |  |
| O=C(CSc1nnc(CCCN2C(=O)c3cccc4cccc(c34)C2=O)n1-c1ccccc1)NCCCN1CCOCC1 | inconclusive [inhibitor, partial curve] |  |
| CC(C)c1nnc(NC(=O)CN(C)S(=O)(=O)c2ccc3c(c2)OCCO3)s1 | inconclusive [inhibitor, single point] |  |
| CCOC(=O)Cc1c(C)nc2c(-c3ccccc3)c(C)[nH]n2c1=O |  | inactive: -13.1% |
| Oc1ccc(/C=N/N=C(c2ccccc2)c2ccccc2)c(O)c1O | active: 7.08 µM |  |
| COc1ccc(CCN=C(N)NS(=O)(=O)c2ccc(C)c(C)c2)cc1 | inconclusive [inhibitor, single point] |  |
| O=C(NC1CCCCC1)C(c1cccs1)N(C(=O)c1ccco1)c1ccc2c(c1)OCCO2 (centres undefined) | inconclusive [inhibitor, single point] |  |
| OCCC1CN(Cc2cccc(OC3CCCC3)c2)CCN1Cc1ccsc1 (centres undefined) |  | inactive: 3.75% |
| COc1cc(C2=N/C(=C\c3ccccc3)C(=O)O2)cc(OC)c1OC | inconclusive [inhibitor, partial curve] |  |
| Cc1nc2cnc(N3CCN(C)CC3)nc2n(Cc2ccc(F)cc2)c1=O | inconclusive [inhibitor, partial curve] |  |
| CC(C)C(C(=O)Nc1ccc(S(N)(=O)=O)cc1)N1C(=O)c2ccccc2C1=O (centres undefined) |  | inactive: 17.5% |
| CC1=CC(C)(C)N(C(=O)CNC2CCCC2)c2cc(C)ccc21 | inconclusive [inhibitor, partial curve] |  |
| COc1ccc(OC)c(-n2c(-c3cccc(S(=O)(=O)N(C)C)c3)n[nH]c2=S)c1 | inconclusive [inhibitor, single point] |  |
| O=C(NCc1ccc2c(c1)OCO2)C1CCN(S(=O)(=O)N2CCOCC2)CC1 | inconclusive [inhibitor, partial curve] |  |
| O=C(CN1CCOCC1)N1CCN(c2ccc3ccccc3n2)CC1 | inconclusive [inhibitor, partial curve] |  |
| CCCCCCCCC(=O)NCCOc1ccccc1 |  | inactive: 3.47% |
| O=C(Nc1ccc(F)cc1)NC1(C(=O)NCc2ccc3c(c2)OCO3)CCCCC1 | inconclusive [inhibitor, single point] |  |
